# The supplement of paper PMC11417369
# The list shows a part of the results.
# Tested on: PfAP2-HC AP2 domain (GST-tagged)
# Test: gcPBM binding intensity (ln(normalized median fluorescence intensity)); higher = stronger DNA binding
# How it was run: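 Binding intensity is defined as the maximum Masliner-normalised natural-log median intensity across replicate spots for either probe orientation. It was measured on an Agilent 4 × 180k array of primer-extended double-stranded 36-bp intergenic genomic probes and negative controls, to which GST-tagged P. falciparum DNA-binding domains made in E. coli were applied for 1 h in 1× PBS with 1% milk, 0.2 mg/ml BSA, 0.5% salmon testes DNA and 0.03% Triton X-100. Detection was by Alexa488 anti-GST antibody and scanning at 488 nm.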
row,Sequence,gcPBM binding intensity (ln)
1,GTTATACAAAATAATACATGCATGTCCTACATATAT [TGCATGCA_site320],10.3
2,TATGGAATAAATTTATCCATACATCTTATAACATAT [XGTACX_negctrl_site500],9.63
3,TACATAAATTAATAGTCACACACGTATTTTTTATAT [CACACA_site8806],9.87
4,TAGTTCCTCAAAAATTTCCTTTGTCATTTTATTCAC [GTGCAC_negctrl_site20],9.57
5,ATTTTTTTATTTTGAAGTACATAAACTTTATATATA [XGTACX_site1746],9.58
6,ATTACATATGTCGCTTGTACGCATAATTTTTTTATA [XGTACX_site5782],9.82
7,ATTTAAAAAAAAAGACGTACATTTATATAGAATCCT [XGTACX_site6457],9.59
8,TTTATATTTAAAGAAACATGCATTTATCATATATAC [TGCATGCA_site173],9.59
9,TACACGCATAAACACACACACACACCCATATATATA [CACACA_site8114],11.3
10,CAATTTATAAAGAAAACACACATATACCTATATACA [CACACA_site6710],9.85
11,TCTATAATATTTTTCACACACCATTTCCTTAAACAC [CACACA_site6747],9.91
12,AAAAAAATAAAATACAAAATGGCTATACAAAATAAA [GTGCAC_negctrl_site535],9.82
13,TTTGTTGACGAACACACACACATACATATTTATATA [CACACA_site7141],10.7
14,TTTTCCTTTCACAATGGTACACAAATATACATGCAA [XGTACX_site7244],9.56
15,ATTTTTTTTCGTAATTGTTCTTAATGTTGAATTATA [CACACA_negctrl_site1135],9.68
16,TAGTAATATGTATCCATACACACATACATTTTATTT [CACACA_site873],9.94
17,AAAAAATATACATATTGTACATTTTTTATTAACACA [XGTACX_site6415],9.53
18,ATAAATTTACATTTTTTTTTTTTTTTTTTTTTTTTT [GTGCAC_negctrl_site689],9.31
19,GTATAGTACAAATAAGTGCATATAAAAGAAATACAG,9.87

row,Sequence,gcPBM binding intensity (ln)
1,TAATTTTTATTCAGTTCACACACGCTTTAATATTAT [CACACA_site9147],9.94
2,ATTACCAAAAAAAGGTGTACAAATATAATTATGAAA [XGTACX_site44],9.73
3,GGAATAACCGGACACACACACACATATATATATATA [CACACA_site5874],10.4
4,ATTTAAAATAGAAGTTATATTTATATGGGTGAAAAA [GTGCAC_negctrl_site296],9.5
5,TTATAAATAAAAAGAGTGCAATTATAAATATATATA,9.66
6,AAAAAAATACAAATATGTACACATATATATTTAAAA [XGTACX_site4729],9.76
7,AAATAAAATATGAACAGTACTTTTGATATAACCATT [XGTACX_site1873],9.76
8,TTATTCATACAATATCGTACATATATATATATATAT [XGTACX_site1185],9.87
9,TCTAATCTGGAGAAAAGTACATAGTATCTGGTAACA [XGTACX_site2540],9.45
10,ATTATATATATATATACACACACATATATATATATA [CACACA_site8373],9.87
11,GTACACCTATAATATACACACAACAAATATGCACAT [CACACA_site6603],10.1
12,ATCTTATATATATGTGTGCACGTATATATAAGCAAT [GTGCAC_site9933],9.8
13,GTATGTATGTATGTATGTACTTATTTATTTATTTAT [XGTACX_site1921],9.91
14,TAAAAGTATTCCTTTTGTACATATAATGAAAACAAT [XGTACX_site2069],9.51
15,CTGTTTTTACTAAGTTGTACAAATGATGATACCCTA [XGTACX_site630],9.37
16,ATACAATAATATAAATGTACAAATTATATCTTAATT [XGTACX_site6004],9.62
17,CTATATTTTTAAAAATGTACTTTATAATAAAATACT [XGTACX_site3593],9.53
18,TAAATTTAAAATGACACACACTAAAATTATTTAAGT [CACACA_site4816],10.2
19,ACCTTTAATATATACACACACATAAAAAAAATATAT [CACACA_site1843],10.6

row,Sequence,gcPBM binding intensity (ln)
1,AAATATTCATAGTATACACACATTTATTTATAACCA [CACACA_site6502],9.73
2,AATGATAAAAATAAATGTACAGAATGATATTTTTTT [XGTACX_site5976],9.73
3,ATTAATAAATAAATGACACACACACCCACAAAAAAA [CACACA_site8839],11.3
4,AAAAAATTGTTTCCCTGTACTCAAAAAAAAAAAAAA [XGTACX_site8070],9.21
5,AAAAAAGAAAAGAAATGTACAGAGCTTATCTTTTTA [XGTACX_site5677],9.6
6,TTCAATTTTACATGTAGTACATAAATTATACACAAA [XGTACX_site4946],9.43
7,TTATTCCTATTTGGATGTACATTTTAATATAAACAT [XGTACX_site4386],9.67
8,TTTTTTAATTTTACATGTACATACAGGTTTTTTTTT [XGTACX_site4539],9.72
9,TAAAATTTACGGTCTTGTTGCGCAACCAACATTGTC [CACACA_negctrl_site1175],9.79
10,TAATAATAGTAAATATGTACATATATATATATATAG [XGTACX_site4602],9.97
11,GTTTTTTTTTTTTTGGTGCGTCATTTTCAAAAGAAG [GTGCAC_site9745],9.56
12,TTTATAAAATATCTTTCACACATTACTATGTATTAT [CACACA_site5148],9.81
13,ATAAAAGTTTAATATTGTACGAACATGCGTTTCTAA [XGTACX_site1487],9.45
14,AAAAAAAAATAAAAAAGTACAGGTAAATATATATAT [XGTACX_site5812],9.78
15,GAATAAATAAAAATATGTACATAAATATATATATAT [XGTACX_site8858],10.1
16,AAAAAAAAAAAATATATATATATATATATAATATTT [GTGCAC_negctrl_site678],9.44
17,AAGACAAATATGTATTGTACGAACGCTTTTTAATTA [XGTACX_site1961],9.64
18,ATACTTTAAAATAATACACACATGGAAAATAAAATT [CACACA_site697],9.94
19,AAAAAAAAAAAAAAAACACACAATTGAATTATTAAG [CACACA_site2864],9.73
